From PubChem BioAssay AID624417 (National Center for Advancing Translational Sciences (NCATS), 2012)
Hit rate of the full screen: of about 410,000 compounds, about 6,400 (1.6%) were called active. Inconclusive means that the source gave no clear call. Such entries were picked first, then a sample of the others. The call rests on the fitted dose curve; in most records, active means well fitted inhibition curve with a large enough effect; inconclusive means small, poorly fitted or top-dose-only effect; inactive means no such curve, though single readings can be large or run the other way. Potencies of inconclusive entries are left out as doubtful fits.

These molecules were tested against Glucagon-like peptide 1 receptor (Homo sapiens) (UniProt P43220) (assay: qHTS of GLP-1 Receptor Inverse Agonists (Inhibition Mode)). Details: HEK293 GLP-1R CRE-luciferase, luminescence, 24 h, GLP-1R form is constitutively active; series mostly up to 38.3 µM.
Procedure, shortened: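 Inverse agonism was detected as reduced cAMP-driven luciferase luminescence after 24 h compound treatment. The cells were HEK293 clones expressing constitutively active human GLP-1R with the reporter. Reporter-only and GPR119 cell lines served as counterscreen controls.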
Further: nearly all actives have a fitted effect of over 55% in size.
Potency means the concentration at half of the fitted maximal effect; tags describe the fitted curve by direction and shape.

Sequence of UniProt P43220 (P43220 whole entry, looked up): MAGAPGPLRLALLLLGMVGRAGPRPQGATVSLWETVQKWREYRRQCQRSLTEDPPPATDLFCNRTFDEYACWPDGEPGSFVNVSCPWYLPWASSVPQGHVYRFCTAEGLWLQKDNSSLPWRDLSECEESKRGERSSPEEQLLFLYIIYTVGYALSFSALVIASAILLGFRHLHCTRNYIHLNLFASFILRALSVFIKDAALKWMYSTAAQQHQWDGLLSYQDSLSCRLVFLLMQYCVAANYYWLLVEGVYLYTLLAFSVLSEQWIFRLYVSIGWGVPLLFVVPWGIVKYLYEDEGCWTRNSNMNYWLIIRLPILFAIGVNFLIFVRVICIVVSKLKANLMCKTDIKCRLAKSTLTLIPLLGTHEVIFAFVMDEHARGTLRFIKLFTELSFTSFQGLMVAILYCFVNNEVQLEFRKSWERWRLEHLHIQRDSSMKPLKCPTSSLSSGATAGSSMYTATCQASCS

| Structure (SMILES) | Potency |
| --- | --- |
| Cc1nc(NS(=O)(=O)c2ccccc2)sc1C(C)(C)C | inactive |
| COC(=O)c1c(SC)nc2ccccc2c1OCc1ccc(Cl)cc1 | inconclusive [inhibitor, single point] |
| COc1ccc(C(=O)CCNc2ccc(F)cc2)cc1 | inactive |
| Cc1ccc2nc(Cl)c3nnnn3c2c1 | inactive |
| CCOC(=O)c1c(C)[nH]c(C)c1C(=O)COC(=O)c1cccs1 | inactive |
| CCN(CC)S(=O)(=O)c1cccc(C(=O)Nc2ccc(C#N)cc2)c1 | inactive |
| Oc1ccccc1/C=N/Nc1cc(N2CCCC2)nc(N2CCCC2)n1 | inconclusive [inhibitor, single point] |
| CC(C)CN(CCCNC(=O)CN1N=C(c2ccc(Cl)cc2)CCC1=O)CC(C)C | inactive |
| Cc1cc(NCCCn2ccnc2)n2nc(C)c(-c3ccc(Cl)cc3)c2n1 | inconclusive [inhibitor, single point] |
| CCCn1c(Nc2ccccc2)nc2ccccc21 | inconclusive [inhibitor, partial curve, poor fit] |
| CCOC(=O)C1=C[C@@H](C2CCCC2)N(S(=O)(=O)c2ccc([N+](=O)[O-])cc2)[C@H]1c1ccccc1 | inconclusive [inhibitor, single point] |
| CCOC(=O)C(NC(=O)c1ccccc1Cl)(Nc1ccc(C)c(C)c1)C(F)(F)F (stereo not given) | inactive |
| COc1ccccc1C(=O)N1CC(=O)Nc2ccc(C)cc2C1c1ccc(F)cc1 (stereo not given) | inconclusive [inhibitor, full curve, poor fit] |
| O=C(CSc1cccc[n+]1[O-])Nc1ccccc1Oc1ccccc1 | inconclusive [inhibitor, full curve, poor fit] |
| Cc1ccc(-n2c(=O)[nH]c3c(C(N)=O)nc(CC(C)C)nc32)cc1 | inactive |
| Cc1cc(S(=O)(=O)N2CCCC2)ccc1OCC(=O)N1CCOCC1 | inactive |
| Cc1cccc(C(=O)OCC(=O)N2CCN(C(=O)c3ccco3)CC2)c1O | inconclusive [inhibitor, single point] |
| CC(=O)Cc1nsc(NC(=O)c2cc(-c3ccccc3Cl)oc2C)n1 | inconclusive [inhibitor, single point] |
| COc1ccccc1NS(=O)(=O)c1ccc(C(=O)NCC(c2ccco2)N(C)C)cc1 (stereo not given) | inconclusive [inhibitor, single point] |
| COc1ccc(CNC(=O)c2cc(-c3cc(C)cc(C)c3O)n[nH]2)cc1 | inconclusive [inhibitor, single point] |
| O=C(NC(Cc1c[nH]c2ccccc12)C(=O)Nc1ccc(F)cc1)c1cccs1 (stereo not given) | inconclusive [inhibitor, partial curve, poor fit] |
| CCC(C)(C)c1ccc(OCC(=O)N(C)C)c(C(C)(C)CC)c1 | inconclusive [inhibitor, partial curve, poor fit] |

| Structure (SMILES) | Potency |
| --- | --- |
| COC(=O)[C@]12CCCCC=C1N(Cc1ccco1)C(=O)[C@H](CC(=O)N1CCC(c3ccccc3)CC1)C2 | inconclusive [inhibitor, single point] |
| CCc1nnc(NC(=O)c2cccc(S(=O)(=O)N3CC(c4ccccc4)CC3=O)c2)s1 (stereo not given) | inactive |
| COc1ccc(S(=O)(=O)n2cccc2)c(OC)c1 | inactive |
| CN1CCN(c2ccccc2NC(=O)c2ccc(OCc3ccccc3)cc2)CC1 | active: 11.2 µM |
| CCCCCCCCC(=O)NC(NC(=S)N1CCOCC1)C(Cl)(Cl)Cl (stereo not given) | inconclusive [inhibitor, partial curve] |
| CCCn1c(CNC(=O)c2ccc(F)cc2)nc2ccccc21 | inconclusive [inhibitor, single point] |
| Fc1ccc(Nc2nc(-c3ccncc3)nc3ccccc23)cc1F | inconclusive [inhibitor, full curve, poor fit] |
| CCOc1cc(/C=C/C(=O)c2ccc(OC)c(CN3CCOCC3)c2)cc(Br)c1O | inconclusive [inhibitor, partial curve, poor fit] |
| CCc1cc(C(c2cccc(OC)c2)N2CCOCC2)c(NC(=O)c2ccccc2)s1 (stereo not given) | inconclusive [inhibitor, partial curve] |
| Cc1ccccc1NC(=S)N(CCc1c(C)[nH]c2ccc(F)cc12)Cc1cccnc1 | inconclusive [inhibitor, single point] |
| CCC(Oc1ccccc1F)C(=O)N1CCC(c2nc3ccccc3s2)CC1 (stereo not given) | inconclusive [inhibitor, single point] |
| CC(C)C[C@H](NC(=O)N1CCn2c1nc1ccccc12)C(=O)NCc1ccccc1 | inconclusive [inhibitor, partial curve, poor fit] |
| CC(=O)N1c2ccc(S(=O)(=O)NCCC(=O)NCc3ccc(F)cc3)cc2CC1C (stereo not given) | inactive |
| CCN(CC)C(=O)N1CCc2ccccc2C1CN1C(=O)c2ccccc2C1=O (stereo not given) | inconclusive [inhibitor, single point] |
| Cc1cc(C)cc(NC(=O)CN2C(=O)NC(Cc3c[nH]c4ccccc34)C2=O)c1 (stereo not given) | inconclusive [inhibitor, single point] |
| CCCC[C@@H]1CC2=C(C(=O)OC(C)(C)O2)[C@H](c2ccc(C(C)C)cc2)O1 | inconclusive [inhibitor, single point] |
| CCCCCn1c(=O)[nH]c2cc(C(=O)NCCCN3CCCCC3)ccc2c1=O | inconclusive [inhibitor, single point] |
| O=C(NC(=S)N1CCCCCC1)c1cccc([N+](=O)[O-])c1 | inconclusive [inhibitor, full curve, poor fit] |
| CCOC(=O)CNC(=O)Nc1cc(C(=O)NCc2ccccc2OC)ccc1N1CCCC1 | inactive |
| Cc1cccc(Nc2nc3c(S(=O)(=O)c4ccccc4)nnn3c3ccccc23)c1 | inactive |
| C[C@]12c3[nH]c4ccc(Cl)cc4c3CCN1C(=O)[C@@H](CC(=O)NCC13CC4CC(CC(C4)C1)C3)C[C@@H]2C(=O)N1CCOCC1 | active: 10 µM |
| S=C(NCc1ccncc1)Nc1cc(Cl)cc(Cl)c1 | inconclusive [inhibitor, partial curve, poor fit] |

| Structure (SMILES) | Potency |
| --- | --- |
| CCOC(=O)c1oc2ccc(S(=O)(=O)n3nc(-c4cc(OC)c(OC)c(OC)c4)cc3N)cc2c1C | inconclusive [inhibitor, partial curve, poor fit] |
| Cc1ccccc1C(=O)NC1(C(F)(F)F)N=C(c2ccccc2)N(C2CCCCC2)C1=O (stereo not given) | inconclusive [inhibitor, single point] |
| CCCC(=O)N1CCN(c2ccc(NC(=O)c3cccs3)cc2Cl)CC1 | inconclusive [inhibitor, partial curve, poor fit] |
| CCc1nc2ccc(C(=O)Nc3cccc(OCC(=O)N(C)C)c3)cn2c1N(C)Cc1ccc(OC)cc1 | inconclusive [inhibitor, single point] |
| O=S(=O)(Nc1ccc(O)c(Sc2nc3ccccc3s2)c1)c1ccc(F)cc1 | inconclusive [inhibitor, partial curve, poor fit] |
| COc1ccc(C(C(=O)Nc2ccc3c(c2)OCCO3)n2c(=O)c(-c3cc4ccccc4[nH]3)nc3ccccc32)cc1 (stereo not given) | inconclusive [inhibitor, partial curve] |
| CN(CC1CCN(CCc2cccc(C(F)(F)F)c2)CC1)C(=O)c1ccc(F)cc1 | inconclusive [inhibitor, single point] |
| CC(C)Cn1cnc2c(SCCc3ccccc3)nc(N)nc21 | inconclusive [inhibitor, full curve, poor fit] |
| CCOCCCNCc1ccc(OCc2ccccc2C)c(OC)c1 | inconclusive [inhibitor, partial curve, poor fit] |
| CCN(CC(=O)Nc1cc(S(=O)(=O)N2CCOCC2)ccc1Cl)Cc1ccccc1 | inconclusive [inhibitor, partial curve, poor fit] |
| CCc1ccccc1Nc1nn2c(=O)c3ccc(C(=O)NCc4ccccc4OC)cc3nc2s1 | inactive |
| Cc1ccc(-n2nc(CO)c(C(=O)NCCCc3ccccc3)n2)cc1C | inactive |
| Cn1c(C(=O)N2CCCC(Nc3ccc(F)cc3)C2)cc2ccccc21 (stereo not given) | inconclusive [inhibitor, partial curve, poor fit] |
| COCCNc1oc(-c2ccccc2Cl)nc1S(=O)(=O)c1ccc(C)cc1 | inactive |
| COc1ccccc1N1CCN(C(=O)NCc2ccc(Cl)cc2)CC1 | inconclusive [inhibitor, single point] |
| O=C(CCCOC(=O)c1ccc(O)cc1O)c1ccc(Br)cc1 | inconclusive [inhibitor, single point] |
| CCn1c(-c2ccco2)nc2ccccc21 | inactive |
| O=C(O)c1ccc2nc(-c3cc4cccc(O)c4oc3=O)[nH]c2c1 | inconclusive [inhibitor, partial curve, poor fit] |
| CCS(=O)(=O)N1Cc2ccccc2CC1C(=O)NC(C)C12CC3CC(CC(C3)C1)C2 (stereo not given) | inconclusive [inhibitor, single point] |
| CCCSc1nnc(N2C(=O)C(O)=C(C(=O)c3ccco3)C2c2ccccc2F)s1 (stereo not given) | inconclusive [inhibitor, single point] |
| COc1cc2c(cc1OC)CN(C(=O)CSc1ccccc1C)CC2 | inactive |
